The supplement of paper PMC3334620
Whole data set: some 33,000 sequences, median “E-score (-0.5 to 0.5)” near -0.032, cut for the highest 2% near 0.36. The list shows a part of the results.

molecular target: T1, Sko1 (UniProt Q02100); assay: PBM E-score (8-mer binding enrichment) (E-score (-0.5 to 0.5)); higher = stronger / more preferred TF binding; most listed sequences are background and not binding sites; conditions: protein concentration: 200 nM; construct: GST-full length
T1 sequence: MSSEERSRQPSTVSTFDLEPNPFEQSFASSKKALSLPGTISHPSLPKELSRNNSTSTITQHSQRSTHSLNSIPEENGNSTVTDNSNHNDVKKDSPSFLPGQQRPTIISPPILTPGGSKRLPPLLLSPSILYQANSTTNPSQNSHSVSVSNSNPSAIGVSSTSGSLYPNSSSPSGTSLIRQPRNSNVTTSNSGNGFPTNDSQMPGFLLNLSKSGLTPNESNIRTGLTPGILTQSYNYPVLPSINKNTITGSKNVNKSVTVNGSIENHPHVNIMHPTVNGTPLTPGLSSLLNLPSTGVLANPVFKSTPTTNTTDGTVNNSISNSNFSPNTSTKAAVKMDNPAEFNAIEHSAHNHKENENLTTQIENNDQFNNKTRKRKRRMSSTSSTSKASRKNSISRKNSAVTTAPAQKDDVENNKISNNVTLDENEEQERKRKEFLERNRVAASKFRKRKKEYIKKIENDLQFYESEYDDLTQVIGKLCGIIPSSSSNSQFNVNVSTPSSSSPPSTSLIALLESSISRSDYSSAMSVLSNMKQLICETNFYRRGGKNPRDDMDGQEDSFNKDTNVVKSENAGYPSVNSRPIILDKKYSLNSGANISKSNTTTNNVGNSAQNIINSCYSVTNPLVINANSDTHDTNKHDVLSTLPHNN
Procedure, shortened: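 The E-score, a modified Wilcoxon-Mann-Whitney statistic, was computed by the Universal PBM Analysis Suite for every ungapped eight-base word pooled with its reverse complement. Scans behind it were normalised with masliner after bound GST-tagged yeast transcription factors were detected with fluorescent anti-GST. The proteins, at about 100-200 nM, had been applied to universal all-10-mer Agilent arrays made double-stranded by primer extension.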

Row | Sequence | PBM E-score
1 | AGTCGTAT | 0.0845
2 | GGTGACCA | -0.137
3 | GGCTTGGA | -0.184
4 | CCGATGCG | -0.123
5 | CGGTACGA | 0.186
6 | ACCCATTA | -0.0424
7 | CAAGTGTG | -0.0161
8 | AAGGGGCT | -0.162
9 | CGAACACG | 0.163
10 | CCCACGCG | -0.11
11 | GTGCTTGA | 0.101
12 | GCGTATCC | 0.142
13 | ACCATAGG | -0.232
14 | CGAAGTCG | 0.168
15 | AATAAAAA | 0.21
16 | GAGTTAGA | 0.0048
17 | GATGGTAA | -0.0973
18 | GATTATCA | 0.0107
19 | AGTTGGCG | -0.0454
20 | GACAGAGA | 0.00436
21 | CGACGTCG | 0.209
22 | AGAGTCAA | -0.224
23 | AGCAATAT | 0.0119
24 | GGTAATAA | 0.185
25 | CTAATTAC | 0.323

Row | Sequence | PBM E-score
26 | ACATGCTA | 0.0885
27 | CGAAGCCG | -0.229
28 | AGGTAGCA | -0.0865
29 | CATGGGAA | -0.11
30 | ATGTACGG | -0.046
31 | CTTGTGGA | -0.159
32 | CGCGTTTA | 0.103
33 | AAGGAGAC | -0.0673
34 | ACGGCCGC | -0.265
35 | GGAAGGGA | -0.287
36 | AGAAGGGA | -0.196
37 | GGAGGTTA | -0.204
38 | AAACAACT | 0.0554
39 | GCCGAGCA | -0.209
40 | GTATATCA | 0.311
41 | AAAGAGGA | -0.291
42 | CGGTCAGC | -0.369
43 | AAATTAGC | -0.0567
44 | CACCTCCC | -0.238
45 | TTCTGAAA | 0.0361
46 | CATTTGCC | -0.271
47 | ATACTGTA | 0.0855
48 | GACGTCTA | 0.358
49 | ACAACCGG | -0.197
50 | CGAGTACC | -0.0647

Row | Sequence | PBM E-score
51 | AGGCGCAC | -0.0624
52 | AATGATAC | 0.193
53 | CACTTCAA | 0.0988
54 | CACTGATC | -0.128
55 | CGCCCTTA | -0.134
56 | CCTGAAAC | 0.0107
57 | CTTTACCC | -0.0701
58 | CGGCATGA | 0.11
59 | CATATTCA | 0.159
60 | AGGGTGAA | -0.146
61 | CTGCGTGC | 0.00792
62 | CCCTGCTC | -0.312
63 | GGAGACCA | -0.312
64 | CTCTAGGC | -0.274
65 | CCGGACGG | -0.234
66 | ATACGTGG | 0.429
67 | GGTTTGAC | 0.0235
68 | CGTAGAAG | 0.18
69 | TAAATCCA | 0.1
70 | ACTACGAC | 0.181
71 | ATATCTGG | -0.308
72 | CTTCATTC | -0.0754
73 | CTCCGCAG | -0.185
74 | GCATATAA | 0.121
75 | CTCGCTCA | -0.072

Row | Sequence | PBM E-score
76 | CACATTGC | 0.0893
77 | CTGCCTTA | -0.107
78 | ATCGGATA | 0.0265
79 | CGTGATCC | 0.171
80 | CACCCTAC | 0.0999
81 | CTGGCGCC | -0.181
82 | CGGGGAGA | -0.286
83 | CCCTAAAG | -0.213
84 | CTGAGCTC | -0.133
85 | AAGCAAGG | -0.226
86 | TACCAGGA | -0.175
87 | AACCTCAG | -0.157
88 | TAAAGTCA | -0.0259
89 | ATGTAGCA | -0.0391
90 | TTAGTGAA | -0.00461
91 | ACTATATG | 0.0826
92 | AGAATCGG | -0.0821
93 | CAAGGCCC | -0.291
94 | CAAAAGAC | 0.0114
95 | GATGCCCA | 0.0393
96 | GAGGATGC | -0.137
97 | TATTGCAA | 0.014
98 | CGCAAAAG | 0.124
99 | CGTACCTA | 0.164
100 | CGACTCAC | -0.109

Row | Sequence | PBM E-score
101 | CATATCCC | -0.0572
102 | GGAAGCAC | 0.0625
103 | AGGGGAAT | -0.0405
104 | CTAGAGAA | -0.095
105 | CTTAGAGA | -0.129
106 | CCCCTTCC | -0.201
107 | ACTAAAGG | -0.0392
108 | ATTCACAA | 0.245
109 | GAATGGGC | -0.224
110 | CGCACGCG | 0.136
111 | CAGAGCAC | -0.113
112 | GATCTGGC | 0.0354
113 | GGGGGCAC | -0.26
114 | ATCGGTGG | -0.127
115 | ATCCGATG | -0.0255
116 | AGGGCCCA | -0.411
117 | ACCCATCA | -0.054
118 | AACTGGCT | -0.00996
119 | AGAGCGGG | -0.328
120 | CGAAGGCC | -0.321
121 | AAAAGGCG | -0.037
122 | GATAAGGC | -0.0671
123 | AATAAATC | 0.0368
124 | CCTAATCC | -0.11
125 | GAGTTGAA | -0.0752

Row | Sequence | PBM E-score
126 | CTTCCCGC | -0.0138
127 | CATACGAA | 0.308
128 | GTCCCCTA | -0.169
129 | AGTGAACT | -0.0716
130 | CCATAAGG | -0.224
131 | AATCGGCG | -0.0909
132 | TAAGGTCA | 0.0163
133 | ACGTCGCT | 0.308
134 | CACTGCAA | 0.0303
135 | GGTTCCAC | -0.283
136 | CGCCCGGA | -0.211
137 | AGTTTCCG | -0.0487
138 | CAGTCTAG | -0.246
139 | ATTGGGCA | -0.079
140 | ACGGCCCA | -0.317
141 | ATCGCTGG | -0.237
142 | CTAGGTCA | 0.154
143 | ACGTAGAA | 0.434
144 | ATCATCTC | 0.148
145 | TGAATCAA | 0.143
146 | AAACACCA | 0.0437
147 | GTTCAACA | 0.0601
148 | AAAGTCTA | 0.0758
149 | ATTCCACA | 0.085
150 | GAGAACAA | 0.138

Row | Sequence | PBM E-score
151 | ACTGACGC | 0.334
152 | CACCTTCC | -0.146
153 | CCCATCAA | -0.00778
154 | TGCTGCCA | -0.0316
155 | GTATAGGA | 0.0565
156 | AAGTTCCC | -0.187
157 | GCCCCAGC | -0.239
158 | AGGACTTG | -0.208
159 | GCGAAGGA | -0.203
160 | ACGAGCGT | 0.0806
161 | CGTCTGGA | -0.137
162 | AGCCATGC | -0.207
163 | AACTTAGA | 0.138
164 | AGATGGGG | -0.324
165 | GGATCCTA | -0.185
166 | AAATAGCA | 0.107
167 | GACATTGA | 0.0998
168 | CCATCCAG | -0.224
169 | CTCGCGGA | -0.282
170 | ATTTCCAA | -0.048
171 | AGCTTTAT | -0.0333
172 | AGCTCACA | -0.0159
